Reference: PubChem BioAssay AID624417 (National Center for Advancing Translational Sciences (NCATS), 2012)
Screen size: about 410,000 compounds; about 6,400 (1.6%) were called active. The shares of active, inactive and inconclusive entries below differ from those in the screen. Calls follow the shape of the dose curve; as a rule, active = well fitted inhibition curve with a large enough effect; inconclusive = small, poorly fitted or top-dose-only effect; inactive = no such curve, though single readings can be large or run the other way. No potency is given beside an inconclusive call; the fits are too rough.
% is scaled to controls: 0 for no effect and ±100 for the full control effect; potency is read from the fitted curve at half-maximal effect; tags tell the direction and shape of the fitted curve.
Also: nearly all actives have a fitted effect of over 55% in size.

What follows are molecules tested against Glucagon-like peptide 1 receptor (Homo sapiens) (UniProt P43220) (assay: qHTS of GLP-1 Receptor Inverse Agonists (Inhibition Mode)). Settings: HEK293 GLP-1R CRE-luciferase, luminescence, 24 h, GLP-1R form is constitutively active; activity change, negative = inhibition: at 38.3 µM (top of the series) unless noted.
Chain of UniProt P43220 (P43220 whole entry, looked up): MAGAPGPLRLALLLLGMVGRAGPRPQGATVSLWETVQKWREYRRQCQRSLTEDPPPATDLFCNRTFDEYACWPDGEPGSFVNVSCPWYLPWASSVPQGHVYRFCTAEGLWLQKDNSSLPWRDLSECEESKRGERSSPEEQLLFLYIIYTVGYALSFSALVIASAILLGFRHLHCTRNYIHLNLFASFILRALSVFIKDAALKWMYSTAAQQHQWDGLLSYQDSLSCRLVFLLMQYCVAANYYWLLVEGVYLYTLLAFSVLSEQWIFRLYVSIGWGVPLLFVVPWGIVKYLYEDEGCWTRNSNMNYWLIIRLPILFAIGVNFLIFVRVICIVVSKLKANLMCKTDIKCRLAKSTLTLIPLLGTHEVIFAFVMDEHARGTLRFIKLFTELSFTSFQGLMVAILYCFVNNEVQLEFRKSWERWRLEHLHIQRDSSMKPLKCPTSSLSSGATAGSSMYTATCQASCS
How it was run: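 GLP-1R inverse agonism mode: basal reporter luminescence in engineered HEK293 cells measured after one day of compound exposure at 37 deg C, with a 12 min room-temperature detection step.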
In the case of `Fc1ccc(COc2ccccc2C(=S)N2CCCC2)cc1`, the “activity change, negative = inhibition” value was inactive: -35.4%.
`O=C(C#Cc1ccccc1)c1ccccc1` was tested, and the Potency was inconclusive [inhibitor, partial curve, poor fit].
With `COc1ccccc1-c1nc(C#N)c(N2CCN(Cc3ccccc3)CC2)o1` the Potency was inconclusive [inhibitor, single point].
With `CCCCCC(=O)N1C[C@H](n2cc(-c3ccc(F)cc3)nn2)[C@@H](O)C[C@@H]1c1ccc(C)cc1` the Potency was inconclusive [inhibitor, partial curve, poor fit].
In the case of `Cc1cccc(Cn2c(=O)n(CCCC(=O)NCc3ccccc3Cl)c(=O)c3ccccc32)c1`, the Potency was inconclusive [inhibitor, partial curve, poor fit].
In the case of `O=C(N/N=C/c1ccc([N+](=O)[O-])s1)c1ccccc1`, the “activity change, negative = inhibition” value was inactive: 9.12%.
In the case of `CC(=O)c1cc(C(=O)N2CCc3c([nH]c4ccccc34)C2C2CCCCC2)[nH]n1` (stereo not drawn), the Potency was inconclusive [inhibitor, single point].
`CCOC(=O)c1ccccc1NC1c2ccccc2C(=O)N1C1CCN(C(=O)OCC)CC1` (stereo not drawn) was tested, and the Potency was inconclusive [inhibitor, single point].
In the case of `Nc1nc(-c2ccccn2)nc(N)c1Cc1ccc(Cl)cc1Cl`, the Potency was inconclusive [inhibitor, single point].
In the case of `CCNC(=S)N(Cc1ccc(OC)cc1)C1CC(=O)N(c2ccc(OCC)cc2)C1=O` (stereo not drawn), the Potency was inconclusive [inhibitor, partial curve, poor fit].
In the case of `O=S(=O)(c1ccccc1F)N1CCN(CCc2ccccc2)CC1`, the Potency was inconclusive [inhibitor, partial curve, poor fit].
For `Cc1ccc(S(=O)(=O)c2nc(-c3cccs3)oc2SCC(=O)Nc2cc(C)cc(C)c2)cc1`, the Potency was inconclusive [inhibitor, single point].
With `Cc1cc2oc(C(=O)NCC(c3ccco3)N3CCCC3)c(C)c2cc1C` (stereo not drawn) the Potency was inconclusive [inhibitor, partial curve, poor fit].
`Cc1cnc(CNC(=O)c2ccc3sc([C@H]4C[C@H](O)[C@@H](CO)O4)nc3c2)cn1` was tested, and the “activity change, negative = inhibition” value was inactive: 31%.
With `COC(=O)c1[nH]c2cc(OC)ccc2c1NC(=O)c1c(F)cccc1F` the “activity change, negative = inhibition” value was inactive: -13%.
For `Cc1cc(OCc2cc(C(=O)NC(C)c3c(C)nn(C)c3C)no2)cc(C)c1Cl` (stereo not drawn), the Potency was inconclusive [inhibitor, single point].
With `COc1c(C)cc(C(O)c2ncc(-c3cccc(C(F)(F)F)c3)[nH]2)cc1C` (stereo not drawn) the Potency was active: 12.6 µM.
In the case of `O=C(O)C(=O)/C(=C\c1ccccc1)c1ccc2ccccc2n1`, the “activity change, negative = inhibition” value was inactive: 18.1%.
